Assay results as given in article PMC12136788.
Some of the results follow.

T1: UNK ZnF1-3 (human, UniProt Q9C0B0 31-174)
T1 sequence: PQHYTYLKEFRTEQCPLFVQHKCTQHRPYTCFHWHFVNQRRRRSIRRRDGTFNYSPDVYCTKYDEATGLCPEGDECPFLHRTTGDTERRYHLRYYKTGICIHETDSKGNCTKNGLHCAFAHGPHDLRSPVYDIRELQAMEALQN

B1: 87333194_87339485_488_3pUTR_ENSMUSG00000003382_ENSMUST00000170036|mouse|control|control (ssRNA)
RNA: GGGAGUUCUACAGUCCGACGAUCAUGGAACCGGGAGGAGGCUGUUGGCACUGGUGGCGCACUCUGAGGAACCACACCACUCGAGCGAAUGUUGAUGAACGGGUAGUUGGGCAUCACGAGCUUGUUGAAGUUAAACUUGUAAGUCAACAGAGGAUUGAGCAUCA
B2: chr19:10591827:10591828:-_ENSMUSG00000024668_ENSMUST00000025570|mus_hu|FALSE|FALSE (ssRNA)
RNA: GGGAGUUCUACAGUCCGACGAUCUUCAAUCAUGUCCUUUUGGGAAUCUGUUGGGCUGUCACCUCUGUAGAAGCGUCUGAAUGAUGUCACACUGAGCAAAGGAGACAAUAGGCUGUGCCUUGACAGAGCAAGCAUCAGCGACGACAACAGAGGAUUGAGCAUCA
B3: 131456618_131456738_1314_CDS_ENSMUSG00000028911_ENSMUST00000053819|mouse|control|control (ssRNA)
RNA: GGGAGUUCUACAGUCCGACGAUCUGACACCGAGCGGGACGGUGACCGGGAGUGGUCGGUGUCCUUCUUCUUCUUGCUGCUGCUGCUACUGACUUUGCUGUCCCGCUUGCUGCUGUGUUUUCGGCUGCGCUCGCUCUUGCUGCGCAACAGAGGAUUGAGCAUCA
B4: chr2:232320318:232320319:-_ENSG00000115053_ENST00000322723|hu_mus|motif|central (ssRNA)
RNA: GGGAGUUCUACAGUCCGACGAUCACUAUUAAAGUCUACAAAACCAAACCCUUUGGAAGAACCAGUUUCCCGAUCAGUGACGGUUCUUGCACGAACAGAGCCCUCAAAUGAUUCUUUUAAGGUCUCUUCAGUGGUAUCCUCAGACAACAGAGGAUUGAGCAUCA
B5: 56975252_56975372_1549_3pUTR_ENSMUSG00000045589_ENSMUST00000053681|mouse|control|control (ssRNA)
RNA: GGGAGUUCUACAGUCCGACGAUCAACCACUCGCUUAUCCCUAGAAUCUCUCCCAUAUUCCCUAUCAACCGUGUGACUAUCUAAAAGCAUUUAUGCGCCACAGAAAAGUUCUCGAGAGCCUGAUGAUACACCGUGACAUCCUAUCAACAGAGGAUUGAGCAUCA
B6: chr5:68553883:68553884:+_ENSG00000134058_ENST00000256443|hu_mus|FALSE|FALSE (ssRNA)
RNA: GGGAGUUCUACAGUCCGACGAUCGCCCUGAAGAGUCAUCAACAUGUAGGCUUUAAUGUGGGAUGGUGUCAGCACAAGGCUGUUAUCCUUUAUAAUAACCUCGAGGUCAGUUUCCAUAAAAUCAAAGACAAGGCUAAUGUUAGACAACAGAGGAUUGAGCAUCA
B7: chr1:163112212:163112213:-_ENSG00000143248_ENST00000313961|hu_hu|hu_hu_hu_mus_False|58_68 (ssRNA)
RNA: GGGAGUUCUACAGUCCGACGAUCUUUUAUUAUCAGUAAGAGUGAGUUACAUACUAGGCAAAGUAUUGAAUACAAAAUUCUAAAGAUAAACACUAUUGGUCCAGAAUUUAAAACUUUAUGAGCGAAGUGCUGGCACAGGACUUACAACAGAGGAUUGAGCAUCA
B8: chrX:140365825:140365826:-_ENSMUSG00000031285_ENSMUST00000033642|mus_hu|FALSE|FALSE (ssRNA)
RNA: GGGAGUUCUACAGUCCGACGAUCCAACCCAUUCAUCCGGGAGCCUCGCAUGUUCCUGGAUGUCUUAUCUCUUUCGUCAAAGUGUCCAAAAUCAAGUUCCAUAUUUUGGUGGAACCUCAGAGACCGGUUUUCUGCUGGUUGGGUCAACAGAGGAUUGAGCAUCA
B9: chr7:141445308:141445309:+_ENSG00000106028_ENST00000265304|hu_hu|hu_hu_hu_mus_False|18_88 (ssRNA)
RNA: GGGAGUUCUACAGUCCGACGAUCUAUGAUUGUUGUUGCUUGCCGCCUCACAUUAUUUUUAUCCAUGUACUCGCCAUAGUCCACUUUCCCUUCCACAAAUAUACGAGCCCCCUUUUUCACAUAUUGAUAUGCCACAUCUCUGAGCAACAGAGGAUUGAGCAUCA
B10: chr16:17484321:17484322:+_ENSMUSG00000006134_ENSMUST00000006293|mus_hu|FALSE|FALSE (ssRNA)
RNA: GGGAGUUCUACAGUCCGACGAUCUUUUGGAGUUUUAGAACAGAAUUCUCUCUUCCUUAAGGUUCACUUCCUGUUGUCCAAAGAAAAGCAAGAUGGCAGCUAAGCCACUGCUUUGUGGAACAGCAAACAUGCAGUAUCUCGCCACAACAGAGGAUUGAGCAUCA
B11: chr2:55561911:55561912:-_ENSG00000115355_ENST00000336838|hu_mus|FALSE|FALSE (ssRNA)
RNA: GGGAGUUCUACAGUCCGACGAUCAUCGAGUUGGGAAUUCUCUUUUUCUAGAGAUUCUAACUGAAAAGUAAGGUUUUUAAAGCUGUCCAAAGUUUUUUUAAAUUUCCUAUUUUCUCUUUCUAGCUCUGAAUUUUCCUGUUCUAACAACAGAGGAUUGAGCAUCA
B12: chr7:135123436:135123437:+_ENSMUSG00000030795_ENSMUST00000077609|mus_hu|FALSE|FALSE (ssRNA)
RNA: GGGAGUUCUACAGUCCGACGAUCGCCUCCACGACCAUUGCCACCACCCCGAUUAAAGUCUGCCCGGCGAGUAGCAAAUGAGACCUUGAUAGGAUUUCCGGAGAAUUCUUUACCAUCAAACCAGUCAAUAGCUGCUUUAGCUGACAACAGAGGAUUGAGCAUCA
B13: chr7:123332509:123332510:-_ENSG00000106299_ENST00000223023|hu_hu|motif|central (ssRNA)
RNA: GGGAGUUCUACAGUCCGACGAUCAGAGCAGGACACUGGCCGACUGUUCUGCUCCACUUUUUUUAGCUGAGCACCCUCUCGGAUUUGAUCUAAAAGAGCUGCUUUGUUUCCUGCAGUAGUUGGAACCUGAUGGUCCCCAUCAGACAACAGAGGAUUGAGCAUCA
B14: chr11:122930651:122930652:-_ENSG00000109971_ENST00000227378|hu_hu|FALSE|FALSE (ssRNA)
RNA: GGGAGUUCUACAGUCCGACGAUCGUUGUCAAAAUCUUCUCCACCCAAGUGGGUGUCUCCAGCUGUAGACUUGACCUCAAAGAUUCCAUCCUCAAUAGUGAGGAUUGACACAUCAAAAGUGCCACCUCCCAGGUCAAAGAUGAGCAACAGAGGAUUGAGCAUCA

Each binder was assayed against T1, UNK ZnF1-3 (assay: nsRBNS (natural sequence RNA bind-n-seq); RBNS binding buffer (assumed for nsRBNS): 25 mM Tris pH 7.5, 150 mM KCl, 3 mM MgCl2, 0.01% Triton X-100, 500 ug/ml BSA, 20 U/ml SUPERase-In, 4 C; UNK is unkempt and MSI1 is Musashi-1; names of the RNAs are library labels; protein concentration not given here; high values mean tight binding).

Row | Binder | binding signal [enrichment R]
1 | B1 | 1.67
2 | B2 | 1.19
3 | B3 | 0.379
4 | B4 | 0.244
5 | B5 | 1.51
6 | B6 | 1.23
7 | B7 | 1.33
8 | B8 | 0.573
9 | B9 | 0.921
10 | B10 | 0.664
11 | B11 | 0.553
12 | B12 | 1.36
13 | B13 | 0.683
14 | B14 | 1.46
